This is an account of results in PubChem BioAssay (NCI).

The subject of this assay is NCI-H322M lung. The assay is described as follows: growth of human tumour cells (NCI), 48 h.

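Assay format: 96-well plates, 48-hour exposure. GI50 = concentration required for 50% inhibition of growth. At the TGI there is no net growth.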

For `N#C[Se]CC(=O)Nc1cccc(C(F)(F)F)c1`, the GI50 is 2.61 µM and the TGI was 10.5 µM.

For the compound `CC1=C(COCCOC(=O)c2ccc(S(=O)(=O)F)cc2)C2=C(C)C3(CC3)[C@@](C)(O)C(=O)C2=C1`, the GI50 was 20.3 µM and the TGI is 53.6 µM.

For the compound `O=C(c1ccc(O)cc1)C1[C@H](c2ccccc2Br)[C@@H](c2ccccc2)NC12C(=O)Nc1ccc(Cl)cc12` (stereo not given in full), the GI50 was 5.98 µM and the TGI came out at 12.5 µM.

As for `COc1ccc(-c2nc(S(=O)(=O)c3ccc(C)cc3)c(S(=O)(=O)CC(=O)N(C)Cc3ccccc3)o2)cc1`, the GI50 is 14 µM and the TGI was found to be 27 µM.

As for `O=C(Nc1ccc(I)cc1F)c1cc(-c2ccc(F)cc2F)ccc1O`, the GI50 is 3.6 µM and the TGI was determined as 77.7 µM.
